Structures are written as SMILES. Values joined by “and” are separate entries in the source; they are usually repeats but may differ in a detail not shown here. Identical values can stand only once. Whole data set: some 13,000 compounds, median “IFI” near 4, cut for the highest 2% near 17. The list shows a part of the results.

The nature of this assay: GSK_TCMDC: Inhibition Frequency Index (IFI). The number of non-kinase HTS assays where a compound showed > 50 % inhibition, expressed as a percentage of the number of such assays in which the compound was tested (-0 is zero). It is filed as functional.
For the compound `O=C(NC1CCC(CN2CCC(c3c[nH]c4ccccc34)CC2)CC1)c1cc(-c2ccc(F)cc2F)ccc1O` (configuration not stated), the IFI was 1.52%.
`CN(Cc1ccccc1)C1CCN(CCc2c[nH]c3ccc(F)cc23)CC1` showed an IFI of 2.13%.
`O=C(NC1CCC(CN2CCC(c3c[nH]c4ccccc34)CC2)CC1)c1cc(-c2ccccc2Cl)n(-c2cccc(Cl)c2)n1` (configuration not stated) gave an IFI of 8.11%.
`CN1CCC(O)(c2ccc(Br)cc2)C(C(O)c2ccc(Br)cc2)C1` (configuration not stated) showed an IFI of 3.55%.
With `N#Cc1ccc(N(CCCO)Cc2ccccc2C(F)(F)F)cc1C(F)(F)F` the figure was 3.55%.
To `COc1cc(/C=C/C(=O)NC2CCC(CN3CCC(c4c[nH]c5ccccc45)CC3)CC2)ccc1O` (configuration not stated) belongs 5.67% and 7.04%; to `CN1CC=C(c2c[nH]c3ccc(Oc4ccccc4)cc23)CC1`, 3.68%.
With `CC(C)N(C)C(=O)n1cnc(S(=O)(=O)C2CC3CCC2C3)n1` (configuration not stated) the figure was 2.76%; with `COc1cccc(C2(NC[C@@H](O)[C@H](Cc3ccccc3)NC(=O)c3ccccc3)CCCCC2)c1`, 6.57%.
In the case of `CNCC(O)c1cc(Cl)c(Cl)cc1C` (configuration not stated), the IFI was -0%.
To `COc1cccc(CN2CCC(CCOC(c3ccccc3)c3ccccc3)CC2)c1O` belongs 3.1%; to `O=C(C=Cc1cccc(Cl)c1Cl)NC1CCC(CN2CCC(c3c[nH]c4ccccc34)CC2)CC1` (configuration not stated), 2.24% and 6.67%.
In turn, `Fc1ccc(N(c2nc(-c3cc(F)cc(C(F)(F)F)c3)cs2)C2CCNCC2)cc1` came in with an IFI of 17.1%.
As for `O=C(/C=C/c1ccc(Cl)c(Cl)c1)NCC1CCCC(CN2CCC(c3c[nH]c4ccccc34)CC2)C1` (configuration not stated), the IFI turned out to be 6.38%.
With `CC(NC(C)(C)C)C(O)c1ccc(Cl)c(C(F)(F)F)c1` (configuration not stated) the figure was 0.77%.
`COc1ccc(OC)c(C(O)CNC(C)C)c1` (configuration not stated) had an IFI of -0%.
`CC(C)(C)c1ccc(Cn2nc(C(=O)N3CCN(C(=O)C4CCCO4)CC3)c3ccccc32)cc1` (configuration not stated) came in with an IFI of 2.13%.
For `O=C(/C=C/c1c(Cl)cccc1Cl)NC1CCC(CN2CCC(c3c[nH]c4ccccc34)CC2)CC1` (configuration not stated), the IFI was 7.3% and 6.02%.
With `CCCCCCCc1cc(O)c2c(c1)OC(C)(C)c1ccncc1-2` the figure was 0.72%.
To `CNC(=O)c1ccc2[nH]cc(C3CCN(CC4CCC(NC(=O)/C=C/c5ccc(Cl)c(Cl)c5)CC4)CC3)c2c1` (configuration not stated) belongs 0.75%.
To `CC(C)CNCc1ccc(-c2ccc(CN(C(=O)Nc3ccccc3)C3CCN(Cc4ccccc4)CC3)cc2)cc1` belongs 4.93%; to `C[C@H](Cc1ccc(OCCCCCCOc2ccccc2)cc1)NC[C@H](O)c1cccc(Cl)c1`, 7.64%.
On to `CN(C)CCC(=O)c1ccccc1`, for which the IFI stood at 0.73%.
Consider `CC[C@H]1CN2CC[C@H]1C[C@@H]2[C@@H](O)c1ccnc2ccc(OC)cc12`, for which the IFI was -0%.
The compound `NCC(=O)c1cc2c(cc1N)OCCO2` returned an IFI of 3.57%.
Turning to `COc1ccc(C=CC(=O)NC2CCC(CN3CCC(c4c[nH]c5ccccc45)CC3)CC2)cc1OC` (configuration not stated), the IFI is 5.8% and 3.7%.
To `CC(Cc1ccc(OCCOc2ccccc2)cc1)NCC(O)c1cccc(C(F)(F)F)c1` (configuration not stated) belongs 2.9%.
To `CC[C@H]1CN2CC[C@@H]1C[C@H]2[C@H](O)c1cc(-c2ccc(Cl)c(Cl)c2)nc2ccc(O)cc12` belongs 3.65%.
With `COC(=O)c1ccc(CC(C)NCC(O)c2cc(Cl)c(N)c(Cl)c2)cc1` (configuration not stated) the figure was 2.78%; with `CCOC(=O)c1c(CN2CCN(C)CC2)n(Cc2ccccc2)c2cc(Br)c(O)cc12`, 5.56%; with `C/C=C1/CN2CC[C@H]1C[C@H]2[C@H](O)c1ccnc2ccc(O)cc12`, 0.8%.
As for `O=C(NC1CCC(CN2CCC(c3c[nH]c4ccccc34)CC2)CC1)c1cnn(-c2ccccc2)c1-c1ccccc1Cl` (configuration not stated), the IFI is 8.78%.
To `COc1coc(C(=O)NC2CCN(CC3(c4ccc(Cl)cc4)CCC3)CC2)c1OC` belongs 7.14%; to `O=C(/C=C/c1ccc(Cl)c(Cl)c1)NCC1CCC(N2CCC(c3c[nH]c4ccccc34)CC2)CC1` (configuration not stated), 6.43%.
Compound `CN1CC[C@H](N(Cc2ccccc2F)c2ccc(C#N)c(Cl)c2)C1` had an IFI of 5.41%.
To `CN(c1cc(NC(=O)c2cccs2)ccn1)C1CCN(Cc2cccc(F)c2)CC1` belongs 5.88%; to `O=C(NC1CCC(CN2CCC(c3c[nH]c4ccccc34)CC2)CC1)[C@H]1Cc2ccccc2CN1` (some centres not stated), 5.71%.
As for `O=C(NC1CCC(CN2CCC(c3c[nH]c4ccccc34)CC2)CC1)c1ccc(-c2cc(C(F)(F)F)ccc2Cl)o1` (configuration not stated), the IFI is 1.46%.
To `Oc1ccc2[nH]cc(C3=CCN(CCc4ccccc4)CC3)c2c1` belongs 2.24%; to `S=C(NCCc1ccc(Cl)cc1)N1CCC(CN2CCC(c3c[nH]c4ccccc34)CC2)CC1`, 6.38%.
To `CC(Cc1ccc(OCc2ccc(CCN(C)C)cc2)cc1)NCCc1cccc(Cl)c1` (configuration not stated) belongs 5.84%.
Turning to `Cc1[nH]c2ccc(O)cc2c1C1CCN(CC2CCC(NC(=O)/C=C/c3c(Cl)cccc3Cl)CC2)CC1` (configuration not stated), the IFI came out at 1.47%.
On to `O=C(NC1CCC(CN2CCC(c3c[nH]c4ccccc34)CC2)CC1)c1[nH]c(=O)[nH]c(=O)c1F` (configuration not stated), for which the IFI was 0.77%.
Compound `COc1ccc(F)cc1-c1csc(N(c2ccc(F)cc2)C2CCNCC2)n1` had an IFI of 14.4%.
`CC(=O)Nc1ccc2[nH]cc(C3CCN(CC4CCN(C(=O)/C=C/c5ccc(Cl)c(Cl)c5)CC4)CC3)c2c1`: the IFI was 1.46%.
To `C=C1C2CC(=O)O[C@@H]3C[C@H]4C(C)=CC(=O)[C@@H](O)[C@]4(C)[C@H]4[C@](O)(OC[C@]234)[C@H]1O` (some centres not stated) belongs 6.11%; to `COc1ccc2[nH]cc(C3=CCN(Cc4ccccc4)CC3)c2c1`, 1.54%.
To `CC[C@H]1CN2CC[C@@H]1C[C@H]2[C@H](O)c1cc(N2CCC(CO)CC2)nc2ccc(OC)cc12` belongs -0%; to `CC(Cc1ccc(NC(=O)CCNCc2ccccc2)cc1)NCCc1cccc(Cl)c1` (configuration not stated), 32.4%.
To `CCOC(=O)c1c(C)n(C2CCCCC2)c2cc(Br)c(O)cc12` belongs 3.45%.
For `Cc1cccc(C(=O)Nc2ccnc(N(C)C3CCN(Cc4cccc(O)c4)CC3)c2)c1`, the IFI was found to be 7.5%.
With `Cc1c(C)c2c(c(C)c1O)CC[C@](C)(C(=O)N1CCC(CN3CCC(c4c[nH]c5ccccc45)CC3)CC1)O2` the figure was 9.92%; with `CN(c1ccc(NC(=O)CCOc2ccccc2)cc1)C1CCN(Cc2cccc(O)c2)CC1`, 9.76%.
As for `Cc1ccc(CC(C)NCC(O)c2cccc(C(F)(F)F)c2)c(C)c1` (configuration not stated), the IFI stood at 5.97%.
To `CC(=O)N(Cc1ccccc1-c1cccc(CNCc2ccc3c(c2)OCO3)c1)C1CCN(Cc2ccccc2)CC1` belongs 5.26%; to `COCCNCc1cccc(-c2ccccc2CN(C(=O)Nc2ccccc2)C2CCN(Cc3ccccc3)CC2)c1`, 5.84%; to `COC(=O)c1ccc(CC(C)NCC(O)c2ccc(Cl)c(Cl)c2)cc1` (configuration not stated), 3.65%.
